The text below walks through data of PubChem BioAssay AID463173 (ICCB-Longwood Screening Facility, Harvard Medical School, 2010).

Molecules are shown by their SMILES. Screen size: about 52,000 compounds; about 4,300 (8.3%) were called active. Cut-off read from the data, not from the text of the source: active = survival mostly below about 52% (no sharp cut-off); inactive = mostly above about 56%. The list shows a part of the results.

For the test, the system named is DeltatarO mutant. As to the kind of experiment: S. aureus survival, RN4220 and DeltatarO strains – OD600, teichoic acid synthesis inhibitors, primary screen (AID 463173). Particulars: S. aureus RN4220 wild type/DeltatarO growth, OD600, 18 h, stronger effect = lower value, screened at 18.75 µg/mL (by protocol).
Consider `O=C(CCCCn1c(=O)c2ccccc2n(Cc2cccc(F)c2)c1=O)NCc1ccc2c(c1)OCO2`, for which the survival was inactive: 92%.
To `O=C(O)c1ccc2nc(-c3cc4cc(Cl)ccc4oc3=O)[nH]c2c1` belongs inactive: 69%; to `Cc1ccc(C(=O)c2oc3ccccc3c2NC(=O)Cc2coc3ccc(C)cc23)cc1`, inactive: 63%; to `CN1/C(=C\C(=O)Nc2cccnc2)c2ccccc2CC1(C)C`, inactive: 65%.
To `Cc1ccc(-c2nc3c4ccccc4n(CC(=O)NCc4ccc(F)cc4)c(=O)n3n2)cc1` belongs inactive: 124%; to `O=c1c2ccccc2n(Cc2c(F)cccc2Cl)c(=O)n1CCc1ccccc1`, inactive: 85%; to `Cc1cc2c(cc3c(SCc4ccc(Cl)cc4)nncn32)o1`, inactive: 72%.
For `COc1ccc(C)cc1NC(=O)c1cnc2ccc(C)cn2c1=O`, the survival was inactive: 90%.
In the case of `OCCNc1ccc(Cl)cc1` it was inactive: 75%; in that of `COCCNC(=O)CCCn1c(SCC(=O)c2ccc(Br)cc2)nc2c(sc3ccccc32)c1=O`, inactive: 68%; in that of `Cc1ccn2c(=O)cc(COc3ccc(NC(=O)COc4ccc(C)c(C)c4)cc3)nc2c1`, inactive: 101%.
For `Cc1ccc(OCC(=O)NCC(c2ccc(Cl)cc2)N2CCOCC2)cc1C` (stereo not drawn), the survival was inactive: 65%.
To `CCOc1cc(C2c3c(oc4ccccc4c3=O)C(=O)N2Cc2ccc(OC)cc2)ccc1O` (stereo not drawn) belongs inactive: 145%.
Take `COc1cccc(C(=O)Nc2cccc(-c3nc4ncccn4c3C)c2)c1`: the survival is inactive: 118%.
As for `O=C(O)c1c(-c2ccccc2)oc2ccc(OCc3c(F)cccc3Cl)cc12`, the survival is active: 29%.
Turning to `Cn1c(=O)c2c(-c3ccc(Br)cc3)n(Cc3ccc(F)cc3)cc2n(C)c1=O`, the survival is active: 49%.
For `COc1ccc(-c2nc3cc(C)ccn3c2NC(=O)c2cccc(F)c2)cc1`, the survival is active: 53%.
`Cc1csc(NC(=O)c2cccnc2)n1`: the survival was inactive: 72%.
Regarding `CCc1nn(CC(=O)NCCCN(CC)CC)c(=O)c2cc3occc3n12`, the survival was inactive: 122%.
Regarding `Cn1c(SCC(=O)Nc2nc3ccccc3s2)ncc(C(=O)Nc2ccccc2)c1=O`, the survival is inactive: 73%.
In the case of `O=C1COc2cc(S(=O)(=O)CCC(=O)NC3CCCCC3)c(Cl)cc2N1` it was inactive: 93%; in that of `COc1ccc(C)cc1-n1cnc2cc(C(=O)NC3CCCCCC3)ccc21`, inactive: 94%.
In the case of `Cc1ccc2onc(CNC(=O)NCc3ccc(Cl)cc3)c2c1` it was inactive: 77%; in that of `O=C(O)C(NS(=O)(=O)c1ccccc1)C(O)c1ccccc1` (stereo not drawn), inactive: 102%; in that of `CCSc1ncc(Cl)c(C(=O)Nc2c(C(=O)Nc3ccccc3)oc3ccccc23)n1`, inactive: 104%.
In the case of `CCOc1ccc(CCNC(=O)CCCc2nnc3n(CC)c(=O)c4sccc4n23)cc1` it was inactive: 80%; in that of `O=C(CSc1nccn1-c1cccc(Cl)c1)Nc1cccc2ccccc12`, inactive: 74%.
Take `CCCC(=O)N1CCc2cc(OC)c(OC)cc2C1COc1ccc(C(=O)OC)cc1` (stereo not drawn): the survival is inactive: 83%.
To `C=CCn1c(N)nc2c1c(=O)n(C)c(=O)n2C` belongs inactive: 95%; to `CCN(CC)C(=O)Cn1c(=O)n(CC2CCC(C(=O)NC)CC2)c(=O)c2sccc21` (stereo not drawn), inactive: 112%; to `COc1ccc(CCNC(=O)C2CCN(Cc3nc(-c4ccc(OC)c(OC)c4)oc3C)CC2)cc1OC`, inactive: 92%.
Take `Cc1ccc(/C=C(\C#N)C(=O)Nc2cccc(Cl)c2)o1`: the survival is inactive: 74%.
To `N#Cc1c(/N=C/c2ccc3c(c2)OCO3)oc(-c2ccccc2)c1-c1ccccc1` belongs inactive: 97%.
In the case of `O=C(NCCn1cc(SCc2ccc(Br)cc2)c2ccccc21)c1cccs1` it was inactive: 110%; in that of `O=C(Nc1ccccc1)c1cc2n(n1)C(C(F)(F)F)CC(c1ccco1)N2` (stereo not drawn), inactive: 99%.
To `COC(=O)c1sc(-c2ccccc2)cc1NC(=O)Nc1ccc(F)cc1` belongs active: 21%.
As for `COc1ccc(C(CC(=O)NCc2ccc(Cl)cc2)N2Cc3ccccc3C2=O)cc1OC` (stereo not drawn), the survival was inactive: 89%.
Consider `COc1ccc2[nH]c(=O)c(CN(CCO)S(=O)(=O)c3ccc(Cl)c(C(F)(F)F)c3)cc2c1`, for which the survival was inactive: 98%.
In the case of `Cc1ccc(OCC(=O)Nc2ccc(S(=O)(=O)Nc3cc(C)on3)cc2)c(Br)c1` it was inactive: 56%; in that of `CCNC(=S)Nc1cc(-c2ccc(Cl)cc2)[nH]n1`, active: 20%; in that of `Cc1cc(C)cc(NC(=O)C2CCCN2S(=O)(=O)c2ccc3nc(-c4ccccc4)[nH]c3c2)c1` (stereo not drawn), active: 38%.
In the case of `O=C(CSc1nc(-c2ccccc2F)nc2cc(=O)[nH]n12)Nc1cccc(C(F)(F)F)c1`, the survival is inactive: 69%.
With `CCOc1ccccc1-c1nc(Cn2c(=O)cc(C)c3c(C)nn(-c4ccccc4)c32)c(C)o1`, the survival is inactive: 87%.
On to `Cc1cc(C)cc(OCCCn2c(-c3ccc(Cl)cc3)nc3ccccc3c2=O)c1`, for which the survival is inactive: 58%.
In the case of `COc1ccc(Cn2c(CCC(=O)Nc3ccc(C)cc3C)nc3cccnc32)cc1` it was inactive: 71%; in that of `Cc1oc2ccc(O)c(CN3CCN(C)CC3)c2c1C(=O)Nc1ccccc1`, inactive: 88%; in that of `CC(C)OCCCNC(=O)c1ccc(Cn2c(=O)c3cccn3c3cccnc32)cc1`, inactive: 116%.
Regarding `COc1cccc(CNC(=O)c2cccc(-n3c(C)nc4cccnc43)c2C)c1`, the survival is inactive: 94%.
As for `Cc1cccc(CSc2nc(=O)c3c(n2C)NC(=O)CC3c2cc(F)cc(F)c2)c1` (stereo not drawn), the survival was inactive: 43%.
In the case of `Cc1oc2ncn(C)c(=O)c2c1C(=O)Nc1ccc(F)cc1` it was inactive: 72%; in that of `CCc1nn(CC(=O)NCCc2ccc(Cl)cc2)c(=O)c2cc3ccccc3n12`, inactive: 85%.
On to `Cc1cc(N2CCN(c3ccc(F)cc3)CC2)n2nc(-c3ccc(Cl)cc3)nc2n1`, for which the survival is inactive: 49%.
In the case of `CCOC(=O)c1[nH]c(C)c(CCC(=O)Nc2ccccc2C(=O)OC)c1C`, the survival is inactive: 77%.
With `CCOc1ccc2nc(N(Cc3cccnc3)C(=O)C3CCCCC3)sc2c1`, the survival was inactive: 94%.
To `O=c1[nH]c(Nc2nc3ccccc3o2)nc2ccccc12` belongs inactive: 95%.
To `Cc1ccc(C2CCN(C(=O)Nc3ccc(Cl)c(Cl)c3)C2)cc1` (stereo not drawn) belongs active: 20%; to `Cc1ccc(-c2nnc(Nc3ccccc3)c3ccccc23)cc1S(=O)(=O)N1CCOCC1`, inactive: 59%.
Turning to `Cc1ccc(CNC(=O)c2ccc3c(c2)N(Cc2ccccc2Cl)C(=O)CS3)cc1`, the survival was inactive: 50%.
